Among all 150,000 compounds or so, about 540 (0.36%) showed an effect of 50% or more. The list shows a part of the results.
Tested on: Plasmodium falciparum
Assay: Primary screen in NF54 nanoGlo assay, in single point, at 2uM, 72h; a lower Z score goes with more inhibition
Assay type: functional, Erythrocyte
Conditions: timepoint 72 hour

Compound | % Inhibition [%] | Z score
Cc1nc2ccccn2c1CN(C)Cc1cnc(C(C)C)nc1 | -17 | 1.74
CCN(C(=O)NCc1cccc(N(C)C)n1)[C@H]1CCOC1 | 8 | -1.01
Cn1cc(CN2CCC(C)(C)[C@@H](c3ccccc3)C2)c(C(=O)O)n1 | -8 | 1.1
CC1CCC(C)N1C(C)C(=O)NCC(CO)Cc1ccccn1 (stereo not given) | 5 | -0.58
CCn1nccc1-c1cc2ncn(C)c2cn1 | -3 | 0.41
O=C(c1nccn1Cc1ccccc1)N1CCOCC1 | -14 | 2.37
Cc1nc(C(=O)N[C@H]2CCCC[C@@H]2O)c(-c2ccccc2)s1 | -6 | 0.91
C/C(=C\c1ccccc1)C(=O)N1CCCc2ccccc21 | -2 | 0.31
O=C([C@H]1CCS(=O)(=O)C1)N1CCc2[nH]nc(C3CC3)c2C1 | -5 | 0.53
CC(C)CN1N=C(C(=O)N2CCOCC2)S(=O)(=O)c2ccc(Cl)cc21 | -3 | 0.37
Cc1nn(C)c(C)c1CCC(=O)N(C)Cc1cc2cc(F)ccc2[nH]1 | -14 | 2.03
CCOC(=O)c1nc(N2CC(CO)(CO)C2)cc(C(C)(C)C)n1 | -14 | 1.39
CN1CCC(N(CCc2ccccc2)C(=O)c2cccc3cnccc23)CC1 | -4 | 0.65
COC(=O)NCCNC(=O)[C@@]1(N(C)C)COc2ccccc2C1 | 5 | -0.63
Cc1nccc(NCCc2ncn(C)n2)n1 | -11 | 0.94
CCCN(CCC)S(=O)(=O)NCc1ccnc(OCc2ccc3c(c2)OCO3)c1 | -3 | 0.23
NC(=O)c1ccc2c(c1)CCCN2C(=O)C1CC1c1cccnc1 (stereo not given) | -8 | 1.13
COc1cc(NC(=O)c2cc(-c3ccccc3)nc3ccccc23)c(OC)cc1NC(=O)c1ccccc1 | 0 | 0.06
C#Cc1cc(F)c(NC(=O)NCCNC(C)=O)c(F)c1 | 7 | -1.11
CC(=O)c1sc(NC(=O)c2cc(O)nc3ccccc23)nc1-c1ccccc1 | 1 | -0.11
COCCCN(C)C(=O)Nc1cccc(C)n1 | -5 | 0.67
CCCn1c(=O)c(C(=O)NCc2ccc(F)cc2)nn(-c2cccc(C)c2)c1=O | 5 | -0.66

Compound | % Inhibition [%] | Z score
Cn1cnnc1-c1ccnc(NCc2ccc(Cl)cc2)c1 | -11 | 1.73
COc1ccc(C(=O)N2CCCCCCNC(=O)[C@@H]3C[C@@H](c4nc(-c5cnccn5)no4)C[C@@H]32)cc1F | -5 | 0.63
COc1ccccc1Oc1cc(N2CCN(C(=O)C(C)(C)C)[C@@H](C)C2)ncn1 | -10 | 1.39
CC(C)[C@H]1CN(c2nc3c(cc2C(N)=O)CCC3)C[C@@H]1C(=O)O | -9 | 1.15
CCn1cc(C(=O)N[C@@H](C)CNc2ccccc2)cn1 | -2 | 0.17
O=C(Nc1cccc(F)c1)Nc1ccnn1C1CCN(C[C@H]2CCCO2)CC1 | -6 | 1
CN(C)c1ccc(CNC(=O)c2nccnc2-c2nc3ccccc3s2)cc1 | -10 | 1.7
Cc1[nH]nc(CCC(=O)N2CCC(F)(F)CC2)c1C | -2 | 0.41
CC(=O)N1CC[C@H](C(=O)Nc2ccncc2F)C1 | -5 | 0.58
O=C1Nc2ccc(F)cc2C12CCNC2c1ccc2c(c1)OCCO2 (stereo not given) | 31 | -3.54
CN(C)S(=O)(=O)CCC(=O)Nc1nc(C2CCN(C(=O)OC(C)(C)C)CC2)cs1 | -4 | 0.43
COC(=O)c1cnc(N2CCN(c3nccs3)CC2)c(S(=O)(=O)N2CCOCC2)c1 | -6 | 0.94
CC(=O)Nc1nc(CNC2CCOC2c2ccccc2)cs1 (stereo not given) | -9 | 1.29
CC[C@]1(N2CCN(C(=O)Nc3cccc(F)c3C)CC2)CCN(C(=O)C(C)C)C1 | 4 | -0.36
O=C(NCc1cccs1)Nc1ccccc1NC(=O)c1cccc(Cl)c1 | -11 | 1.69
O=c1[nH]c(=O)n(Cc2cc(Cl)cc3c2OCOC3)cc1Cl | 43 | -5.49
COc1ccc(CN2CCC(N(c3ccc(OC)c(OC)c3)S(=O)(=O)c3ccc(F)cc3)CC2)cc1 | 3 | -0.53
O=C(c1cccc(NS(=O)(=O)c2ccc3c(c2)OCCO3)c1)N1CCN(c2cnccn2)CC1 | 10 | -1.31
Cc1c(NC(=O)c2cccc(C(F)F)c2F)cnn1[C@H]1CCOC1 | -15 | 2.69
O=C(Cc1csc(-c2cccnc2)n1)N[C@H](c1ccccc1)C1CC1 | -44 | 5.19
Cc1ccccc1CN1CCCN(C(=O)C2(C#N)CCCC2)CC1 | -3 | 0.24
CN(Cc1nccn1C)C(=O)NC[C@@H](c1ccc(F)cc1)N1CCCC1 | -22 | 2.54

Compound | % Inhibition [%] | Z score
O=C(Cn1nnc(-c2ccc3c(c2)OCO3)n1)N1CCOCC1 | -3 | 0.42
CN(CC(=O)NC1CC1)C(=O)c1c[nH]c(C(F)(F)F)c1 | -7 | 1.23
Cc1cc(NC(=O)C2OC(C)CC2C)c(C)c(C)c1O (stereo not given) | -12 | 1.87
CCN(CC)CCNCc1cccc(Cl)c1Cl | -2 | 0.28
C[C@@H](Cc1ccsc1)N(C)S(=O)(=O)Cc1ccon1 | -8 | 1.04
CCc1cccc(NC(=O)C(=O)c2ccc[nH]2)c1 | -13 | 1.2
O=C(NCCn1c(=O)[nH]c2ccccc21)N1CCOCC(F)(F)C1 | -5 | 0.81
O=C(c1ccc(N2CCCC2=O)cc1)N1CCC(c2ccccn2)CC1 | -2 | 0.38
CC(C)(C)OC(=O)N1CCC2(CC1)CCN(c1cnccn1)CC2 | -3 | 0.33
Cc1nc(N2CC[C@H](c3ccccc3Cl)C2)c2nc(C)oc2n1 | -1 | 0.16
Cc1cc(NC(=O)C(C)(C)c2ccc(Cl)cc2F)nc(=O)[nH]1 | 3 | -0.43
Cc1ccncc1C(=O)N(CCN1CCOCC1)C1CCOCC1 | -4 | 0.71
CCCC[C@H](NC(=O)c1ccccc1N1CCC(=O)NC1=O)c1cccnc1 | 3 | -0.54
Cc1nn(C)cc1[C@H](C)NC(=O)C1CCN(c2cn[nH]c(=O)c2)CC1 | 3 | -0.52
O=C1COc2ccc(C(=O)N3CCc4sccc4C3)cc2N1 | -8 | 1.17
CO[C@@]12CC[C@H](O)C[C@@H]1N(CCc1nc3ccc(C)cc3[nH]1)CC2 | -8 | 0.84
CC1CCN(CC2CCCN(C(=O)C(C(C)C)N3CC(C)OC(C)C3)C2)CC1 (stereo not given) | -11 | 1.24
CC(C)n1nnc2cc(S(=O)(=O)N(C)CC(=O)NCc3ccco3)ccc21 | -11 | 0.97
CCn1nc(C)c(CN2C[C@H]3CN(S(=O)(=O)CC)C[C@@]3(c3nc(C)no3)C2)c1C | 11 | -1.45
COC(=O)[C@@]1(C)CCN(C(=O)c2ccnc3[nH]cnc23)C1 | -16 | 2.92
Cc1cc(CCNC(=O)NC2CNC2)cc(C)c1O | 4 | -0.6
COc1ccc2c(=O)c(C(=O)N3CCN(S(C)(=O)=O)CC3)c[nH]c2c1 | -17 | 2.27

Compound | % Inhibition [%] | Z score
O=C([C@H]1CC(=O)N(c2ccc(F)c(F)c2)C1)N1CCCO1 | -10 | 1.09
Cc1cc2n(n1)CCCN2C(=O)CCC(=O)NCCc1ccc(Cl)cc1 | -10 | 1.23
CN(CC(C)(CO)CO)c1cnccn1 | -9 | 1.74
CS(=O)(=O)N1CCC[C@H](CCc2ccccc2)C1 | -16 | 1.49
Cc1cccc(OCc2nc(CN(CCN3CCOCC3)C(=O)NC(C)(C)C)cs2)c1 | 2 | -0.26
NC(=O)c1nccnc1C(=O)NC1CC1c1cccc(Cl)c1 (stereo not given) | -1 | 0.06
CCc1onc(C)c1[C@@H]1CCCN1Cc1sccc1C | -4 | 0.5
c1cc(CNCCc2nc(C3CC3)cs2)c2[nH]ncc2c1 | -6 | 0.87
Cc1cc(C)c(S(=O)(=O)Nc2ccc3c(c2)CCCN3S(=O)(=O)c2cccs2)c(C)c1 | -21 | 2.07
Cc1cc2n(n1)CCC(=O)N2Cc1ccc(C(=O)NCCCN2CCCCC2)cc1 | 2 | -0.26
O=C(C1CCOCC1)N1CCc2sccc2C1 | -4 | 0.49
CCN(CCNC(=O)c1ccc(-n2c(-c3ccccc3)cc3c2CCCC3)cc1)c1ccccc1 | -17 | 3.24
Cc1oc(S(C)(=O)=O)cc1C(=O)NCc1ccc(C)n1C | -5 | 0.7
Cc1ccc(-n2cc(NCc3cnc([C@H](C)O)s3)cn2)c(C)c1 | -16 | 1.36
Cc1ccc2c(C(=O)N3CCCCC3)cc(-c3cncnc3)nc2c1C | 3 | -0.37
Cc1cc(Cc2cnc(NC(=O)Cc3c(C)noc3C)s2)ccc1Br | -10 | 1.89
O=C(NCc1ccccn1)c1nc[nH]n1 | 1 | -0.08
CC[C@H](NC(=O)COCC(N)=O)c1ccc(C)cn1 | -3 | 0.34
CN(Cc1ccccc1)S(=O)(=O)N[C@@H]1COCC[C@@H]1OCC1CC1 | -4 | 0.63

From ChEMBL document CHEMBL4888484, “Replenishing the malaria drug discovery pipeline: Screening and hit evaluation of the MMV Hit Generation Library 1 (HGL1) against asexual blood stage Plasmodium falciparum ,using a nano luciferase reporter read-out” (2022)
